Experimental findings from the supplement of paper PMC4723716 are described below.

± gives the uncertainty stated by the source. The full ranking holds about 9,900 compounds; the median of “viability index relative to DMSO control” is about 1, and the lowest 2% start at about 0.85. The list shows a part of the results.

The subject of this experiment is Plasmodium falciparum NF54 stage V gametocytes. The experiment is described as follows: viability index relative to DMSO control (fraction); higher = less gametocyte killing. Conditions: 2.5 µM, library set: Broad Institute DOS, incubation time: 72 h. A digest of the protocol:
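Compound at 2.5 µM was incubated for 72 hr at 37°C under low oxygen with P. falciparum NF54 stage V gametocytes (0.75% gametocytemia, 1.25% hematocrit, 10 µl, serum-free screening medium) in 1,536-well plates. Staining used 3 µl of 2.5 µM MitoTracker Red CMXRos plus 0.13% saponin for one to two hours, and red particles of 20–70 µm2 were counted in one imaged field per well. Each viability index is that count relative to the plate mean of solvent-only wells.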
The compound `C/C=C/c1ccc([C@H]2[C@@H](CO)N3CCCCN(S(=O)(=O)c4ccc(OC)cc4)C[C@@H]23)cc1` yielded a viability index of 0.972 ± 0.078.

On to `C[C@@H]1CN([C@@H](C)CO)C(=O)c2cccc(N(C)C)c2O[C@@H]1CN(C)Cc1ccncc1`, for which the viability index came out at 1.04 ± 0.12.

As to `O=C(c1ccccn1)N1CC[C@@H]2[C@H](CO)Nc3ccc(C#Cc4cccnc4)cc3[C@@H]21`, the viability index came out at 1.07 ± 0.017.

As for `O=C(C[C@H]1C=C[C@H](NC(=O)CCN2CCCCC2)[C@H](CO)O1)Nc1nccs1`, the viability index came to 1.07 ± 0.062.

The compound `CN1C(=O)c2cc(NC(=O)Cc3cccs3)ccc2OC[C@@H]2O[C@H](CC(=O)N[C@@H]3CCN(Cc4ccccc4)C3)CC[C@@H]21` displayed a viability index of 1.11 ± 0.14.

In turn, `Cc1ccccc1-c1ccc([C@H]2[C@@H]3CN(C(=O)Cc4ccncc4)C[C@H]2N3)cc1` returned a viability index of 1.16 ± 0.053.

`NCC[C@H]1CC[C@H](NC(=O)Cc2ccncc2)[C@H](CO)O1` registered a viability index of 1.059 ± 0.0073.

`COc1ccc2c3c([nH]c2c1)[C@H](CO)N(C[C@]31CCN(CC1)S(C)(=O)=O)C(=O)c1ccccn1` had a viability index of 1.06 ± 0.045.

As for `CO[C@@H]1CC[C@H]2CCOc3c(C#N)cccc3C(=O)N(C)C[C@H](c3ccccc3)CC(=O)N(C)C[C@@H]1O2`, the viability index turned out to be 1.01 ± 0.015.

The compound `O=C(NCc1cc(F)cc(F)c1)[C@@H]1[C@@H](CO)[C@@H]2Cn3c(cccc3=O)[C@H]1N2` registered a viability index of 1.07 ± 0.033.

Compound `O=C(C[C@H]1C=C[C@@H](NC(=O)C2CCC2)[C@H](CO)O1)NC1CCCCC1` gave a viability index of 1.01 ± 0.033.

Regarding `Cc1ccc(CN2CC(=O)N3[C@H](C2)[C@@H](c2ccc(-c4ccccc4F)cc2)[C@@H]3CO)cc1`, the viability index stood at 1.05 ± 0.051.

Compound `COCC(=O)N1C[C@@]2(C1)CN(Cc1ccc3OCOc3c1)[C@@H](CO)c1c2c2ccc(OC)cc2n1C` displayed a viability index of 0.935 ± 0.05.

In turn, `CCS(=O)(=O)N1C[C@]2(CCN(Cc3cccc(OC)c3)CC2)c2c([nH]c3cc(OC)ccc23)[C@@H]1CO` had a viability index of 1.05 ± 0.15.

Turning to `CC(C)c1cccc(NC(=O)C[C@H]2CC[C@H]3[C@@H](COc4ccc(NS(=O)(=O)c5ccccc5Cl)cc4C(=O)N3C)O2)c1`, the viability index was 1.14 ± 0.066.

In turn, `CCS(=O)(=O)Nc1ccc2c(c1)C(=O)N(C)[C@@H]1CC[C@@H](CC(=O)N[C@H]3CCN(Cc4ccccc4)C3)O[C@@H]1CO2` returned a viability index of 1.06 ± 0.088.

`N#Cc1ccc(-c2ccc([C@H]3[C@H]4CNCC(=O)N4[C@H]3CO)cc2)cc1`: the viability index is 0.939 ± 0.044.

`O=C(NCCc1ccncc1)[C@@H]1[C@@H](CO)[C@@H]2Cn3c(ccc(-c4ccccc4)c3=O)[C@@H]2N1C(=O)C1CC1` had a viability index of 1.01 ± 0.08.

Regarding `COC(=O)C[C@H]1C[C@H]2c3cc(N)ccc3O[C@H]2[C@H](CO)O1`, the viability index was determined as 1.05 ± 0.0071.

Regarding `C[C@@H]1CN([C@@H](C)CO)C(=O)CCCn2cc(nn2)CO[C@H]1CN(C)C(=O)CCC(F)(F)F`, the viability index stood at 1.07 ± 0.07.

For the compound `COc1ccc(CN(C)C[C@H]2Oc3ccc(NC(=O)Nc4ccc5c(c4)OCO5)cc3CC(=O)N([C@H](C)CO)C[C@H]2C)cc1`, the viability index came to 1.03 ± 0.1.

Compound `COc1ccccc1NC(=O)N1CC(=O)N2[C@H](CO)[C@H](c3ccc(C#CC(C)C)cc3)[C@H]2C1` gave a viability index of 1.05 ± 0.025.

In turn, `O=C(C[C@@H]1C[C@H]2c3cc(NS(=O)(=O)c4ccccc4)ccc3O[C@H]2[C@@H](CO)O1)N1CCOCC1` yielded a viability index of 1.05 ± 0.026.

In the case of `C[C@H]1CN([C@@H](C)CO)C(=O)c2ccccc2-c2ccccc2CO[C@@H]1CN(C)C(=O)c1cc(Cl)cc(Cl)c1`, the viability index was found to be 0.904 ± 0.034.

For the compound `CO[C@H](CN(C)C(=O)c1cc(Cl)cc(Cl)c1)[C@@H](C)CN(C(=O)Nc1ccc(F)cc1)[C@H](C)CO`, the viability index came out at 1.1 ± 0.075.

With `CO[C@H]1CN(C)C(=O)c2cc(NC(=O)NC(C)C)ccc2OC[C@@H](C)N(C(=O)CN(C)C)C[C@@H]1C`, the viability index amounted to 1.07 ± 0.085.

As to `COc1cccc(C(=O)Nc2ccc3c(c2)OC[C@@H](C)N(CCc2ccccc2)C[C@@H](C)[C@H](OC)CN(C)C3=O)c1`, the viability index was 1.08 ± 0.015.

Regarding `CN(C)C(=O)c1cccc(-c2ccc3c(c2)[C@@H]2[C@@H](CCN2Cc2nccs2)[C@@H](CO)N3)c1`, the viability index amounted to 0.785 ± 0.07.

As for `N#C[C@@H]1[C@@H](c2ccc(-c3cccc(F)c3)cc2)[C@@H](CO)N1c1nc(-c2ccccc2)cs1`, the viability index worked out at 1.05 ± 0.013.

In turn, `C[C@@H]1CN([C@@H](C)CO)C(=O)c2ccccc2-c2ccccc2CO[C@@H]1CN(C)S(=O)(=O)c1cccc(C#N)c1` returned a viability index of 1.03 ± 0.04.

In turn, `CCCNC(=O)Nc1ccc2c(c1)OC[C@H](C)N(S(C)(=O)=O)C[C@@H](C)[C@@H](OC)CN(C)C2=O` came in with a viability index of 1.06 ± 0.013.

Take `COc1ccc(CNC(=O)C[C@@H]2C[C@H]3c4cc(N(C)C)ccc4O[C@H]3[C@H](CO)O2)cc1`: the viability index stood at 0.926 ± 0.024.

For the compound `COCC#Cc1ccc2c(c1)O[C@@H](CN(C)C(=O)C1CCOCC1)[C@@H](C)CN([C@H](C)CO)S2(=O)=O`, the viability index is 1.06 ± 0.066.

In turn, `CN1C(=O)c2cc(NC(=O)c3cccc(Cl)c3)ccc2OC[C@H]2O[C@@H](CC(=O)NC3CCCCC3)CC[C@H]21` registered a viability index of 0.946 ± 0.029.

In turn, `Cc1ccc(OC(=O)N(C)C[C@@H]2OCc3ccccc3-c3ccccc3C(=O)N([C@@H](C)CO)C[C@H]2C)cc1` registered a viability index of 0.88 ± 0.0063.

As for `COCCNC(=O)C[C@@H]1CC[C@H]2[C@@H](COC[C@H](O)CN2S(=O)(=O)c2ccccc2F)O1`, the viability index was 1.01 ± 0.032.

Consider `C[C@@H]1CN([C@H](C)CO)C(=O)c2cc(N(C)C)ccc2O[C@@H](C)CCCCO[C@H]1CN(C)C(=O)NC1CCCCC1`, for which the viability index came out at 1.07 ± 0.081.

As to `CCCNC(=O)N(C)C[C@H]1[C@H](c2ccccc2)[C@@H](CO)N1C(=O)c1ccccc1`, the viability index came out at 1.08 ± 0.012.

For the compound `O=C(CN1CCOCC1)N1C[C@@H]2N[C@H](C1)[C@@H]2c1ccc(/C=C/c2ccccc2)cc1`, the viability index worked out at 1.0546 ± 0.00012.

`CS(=O)(=O)N1[C@H](CO)[C@H](c2ccccc2-c2ccccc2F)[C@@H]1C#N` showed a viability index of 1.09 ± 0.019.

With `CCCC#Cc1ccc([C@H]2[C@H]3CN(C(=O)Nc4cccc(F)c4)CC(=O)N3[C@H]2CO)cc1`, the viability index came out at 1.1 ± 0.015.

In turn, `CO[C@H]1CN(C)C(=O)c2cc(NC(=O)C3CCCCC3)ccc2OC[C@H](C)N(Cc2cccnc2)C[C@H]1C` displayed a viability index of 1.037 ± 0.0049.

As for `O=C(C[C@@H]1C[C@@H]2c3cc(NC(=O)NC4CCCC4)ccc3O[C@@H]2[C@H](CO)O1)NCc1ccccc1F`, the viability index was 1.06 ± 0.024.

`N#C[C@@H]1[C@H](c2ccccc2C2=CCCC2)[C@H](CO)N1C(=O)NC1CCCCC1`: the viability index was 1.1 ± 0.066.

For the compound `COc1cccc(-c2ccc([C@H]3[C@@H](C#N)N(C(=O)Cc4ccncc4)[C@@H]3CO)cc2)c1`, the viability index came to 1.109 ± 0.0041.
